Test results published in publication PMC10336126.
These are yes or no findings as the source states them, for the method shown. Binding seen in cells or lysates may run through a third protein. Some binding calls cover weakened binding; strength is not graded here.

Amino acid sequences for entries named in this document (tags omitted).
UniProt P32598: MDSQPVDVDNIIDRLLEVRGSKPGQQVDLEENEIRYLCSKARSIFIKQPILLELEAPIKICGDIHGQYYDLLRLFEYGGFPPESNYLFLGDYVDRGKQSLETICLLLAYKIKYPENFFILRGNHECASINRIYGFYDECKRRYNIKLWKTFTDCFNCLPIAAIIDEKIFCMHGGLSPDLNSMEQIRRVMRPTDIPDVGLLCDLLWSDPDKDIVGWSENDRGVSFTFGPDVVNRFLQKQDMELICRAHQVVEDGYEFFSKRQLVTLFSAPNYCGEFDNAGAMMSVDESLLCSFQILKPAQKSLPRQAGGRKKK
UniProt Q00416: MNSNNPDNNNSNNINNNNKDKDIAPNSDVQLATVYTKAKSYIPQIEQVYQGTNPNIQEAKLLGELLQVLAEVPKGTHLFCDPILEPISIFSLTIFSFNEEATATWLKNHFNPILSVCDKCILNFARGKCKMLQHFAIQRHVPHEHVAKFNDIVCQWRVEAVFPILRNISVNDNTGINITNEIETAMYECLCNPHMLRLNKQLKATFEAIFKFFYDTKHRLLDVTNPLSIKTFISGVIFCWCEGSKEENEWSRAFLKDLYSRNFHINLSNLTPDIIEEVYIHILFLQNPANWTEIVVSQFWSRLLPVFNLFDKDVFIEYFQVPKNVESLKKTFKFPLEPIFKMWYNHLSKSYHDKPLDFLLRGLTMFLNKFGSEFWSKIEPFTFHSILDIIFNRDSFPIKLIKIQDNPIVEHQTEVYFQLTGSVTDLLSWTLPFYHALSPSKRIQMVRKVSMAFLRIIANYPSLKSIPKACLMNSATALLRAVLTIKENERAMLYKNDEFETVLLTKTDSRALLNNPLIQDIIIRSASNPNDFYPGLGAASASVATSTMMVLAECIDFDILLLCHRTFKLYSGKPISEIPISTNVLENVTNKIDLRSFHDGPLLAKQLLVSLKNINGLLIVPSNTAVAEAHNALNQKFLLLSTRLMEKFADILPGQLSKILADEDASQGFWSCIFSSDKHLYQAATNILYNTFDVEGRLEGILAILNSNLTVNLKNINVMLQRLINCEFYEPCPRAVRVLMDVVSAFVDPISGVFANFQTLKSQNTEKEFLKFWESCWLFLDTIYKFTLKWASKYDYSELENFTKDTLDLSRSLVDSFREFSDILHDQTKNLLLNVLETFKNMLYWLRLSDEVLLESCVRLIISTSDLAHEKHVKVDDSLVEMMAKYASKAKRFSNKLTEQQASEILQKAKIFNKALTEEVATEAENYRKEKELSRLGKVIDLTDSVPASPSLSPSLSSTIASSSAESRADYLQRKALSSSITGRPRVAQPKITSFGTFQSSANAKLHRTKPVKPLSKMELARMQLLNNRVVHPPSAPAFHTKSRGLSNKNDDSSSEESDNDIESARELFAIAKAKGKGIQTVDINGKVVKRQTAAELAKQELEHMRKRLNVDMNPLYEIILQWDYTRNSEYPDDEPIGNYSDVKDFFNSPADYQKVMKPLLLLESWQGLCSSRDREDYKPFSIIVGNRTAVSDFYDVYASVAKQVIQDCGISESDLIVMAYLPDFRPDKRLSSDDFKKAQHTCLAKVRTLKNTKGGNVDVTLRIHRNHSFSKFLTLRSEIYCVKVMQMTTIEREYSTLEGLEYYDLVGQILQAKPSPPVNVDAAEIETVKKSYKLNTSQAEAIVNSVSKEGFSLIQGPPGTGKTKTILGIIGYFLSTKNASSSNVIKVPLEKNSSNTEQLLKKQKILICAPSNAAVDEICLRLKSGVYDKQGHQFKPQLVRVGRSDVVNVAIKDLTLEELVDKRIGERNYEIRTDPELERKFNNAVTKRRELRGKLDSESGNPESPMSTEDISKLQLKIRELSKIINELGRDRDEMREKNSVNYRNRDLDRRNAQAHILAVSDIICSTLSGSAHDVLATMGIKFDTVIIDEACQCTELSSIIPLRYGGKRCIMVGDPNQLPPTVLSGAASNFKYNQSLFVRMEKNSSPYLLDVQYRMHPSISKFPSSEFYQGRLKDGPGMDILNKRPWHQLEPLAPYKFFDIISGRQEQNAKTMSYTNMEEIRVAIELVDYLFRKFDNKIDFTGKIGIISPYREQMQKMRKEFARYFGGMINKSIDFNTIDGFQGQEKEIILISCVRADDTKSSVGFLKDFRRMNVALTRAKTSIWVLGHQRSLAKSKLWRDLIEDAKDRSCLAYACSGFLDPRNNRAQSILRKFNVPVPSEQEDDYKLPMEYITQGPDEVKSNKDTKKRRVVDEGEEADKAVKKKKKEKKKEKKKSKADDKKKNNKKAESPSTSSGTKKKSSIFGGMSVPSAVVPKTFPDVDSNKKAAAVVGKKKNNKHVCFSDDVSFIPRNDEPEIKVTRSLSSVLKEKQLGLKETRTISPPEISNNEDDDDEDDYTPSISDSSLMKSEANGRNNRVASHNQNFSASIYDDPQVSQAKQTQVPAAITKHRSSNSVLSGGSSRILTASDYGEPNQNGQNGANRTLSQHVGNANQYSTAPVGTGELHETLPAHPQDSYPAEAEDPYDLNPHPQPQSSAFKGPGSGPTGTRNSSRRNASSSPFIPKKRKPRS

Target: Glc7 (protein phosphatase 1 catalytic subunit), endogenously expressed (budding yeast (endogenous in yeast cells)) (UniProt P32598)
Test: co-IP; yeast whole cell extract; anti-FLAG M2 agarose, calmodulin Sepharose beads or antibody on Protein A/G Sepharose, 4 °C; washes with 350 mM NaCl, 0.1% NP-40; immunoblot; also cells in SD (+Glu) or SD-C (-Glu) medium for 2 h (Sen1-Glc7 increased, Rif1-Glc7 unaffected without glucose)

Row | Molecule | binding
1 | Sen1-TAP, endogenously expressed (from UniProt Q00416 1-2231) | binds
2 | Nab3 (protein, UniProt P38996 1-802) MSDENHNSDVQDIPSPELSVDSNSNENELMNNSSADDGIEFDAPEEEREAEREEENEEQHELEDVNDEEEEDKEEKGEENGEVINTEEEEEEEHQQKGGNDDDDDDNEEEEEEEEDDDDDDDDDDDDEEEEEEEEEEGNDNSSVGSDSAAEDGEDEEDKKDKTKDKEVELRRETLEKEQKDVDEAIKKITREENDNTHFPTNMENVNYDLLQKQVKYIMDSNMLNLPQFQHLPQEEKMSAILAMLNSNSDTALSVPPHDSTISTTASASATSGARSNDQRKPPLSDAQRRMRFPRADLSKPITEEEHDRYAAYLHGENKITEMHNIPPKSRLFIGNLPLKNVSKEDLFRIFSPYGHIMQINIKNAFGFIQFDNPQSVRDAIECESQEMNFGKKLILEVSSSNARPQFDHGDHGTNSSSTFISSAKRPFQTESGDMYNDDNGAGYKKSRRHTVSCNIFVKRTADRTYAIEVFNRFRDGTGLETDMIFLKPRMELGKLINDAAYNGVWGVVLVNKTHNVDVQTFYKGSQGETKFDEYISISADDAVAIFNNIKNNRNNSRPTDYRAMSHQQNIYGAPPLPVPNGPAVGPPPQTNYYQGYSMPPPQQQQQQPYGNYGMPPPSHDQGYGSQPPIPMNQSYGRYQTSIPPPPPQQQIPQGYGRYQAGPPPQPPSQTPMDQQQLLSAIQNLPPNVVSNLLSMAQQQQQQPHAQQQLVGLIQSMQGQAPQQQQQQLGGYSSMNSSSPPPMSTNYNGQNISAKPSAPPMSHQPPPPQQQQQQQQQQQQQQQQPAGNNVQSLLDSLAKLQK | binds

Second part, the molecule after the results:

Row | binding | Molecule
3 | binds | Nrd1 (protein, UniProt P53617 1-575) MQQDDDFQNFVATLESFKDLKSGISGSRIKKLTTYALDHIDIESKIISLIIDYSRLCPDSHKLGSLYIIDSIGRAYLDETRSNSNSSSNKPGTCAHAINTLGEVIQELLSDAIAKSNQDHKEKIRMLLDIWDRSGLFQKSYLNAIRSKCFAMDISNNTANTASQQLSLDPKQRSKQILSNLKKSPPLNLNISLPTDLTSTDPAKQQAALFQVIAALQKHFKTLPSHTSVGTVAPPQAHTITEYGSRRERERERERYNSRRNRSRSPPAPFSQPSTGRKDRYPSVAQDQYSIGAPNTTFGTNNHHLYPDELNVSNNPHYRPKPVSYDSTLPPDHIKVYSRTLFIGGVPLNMKEWDLANVLKPFAEVQSVILNNSRKHAFVKVYSRHEAENVLQNFNKDGALPLRTRWGVGFGPRDCCDYQHGYSIIPMHRLTDADKKWSVSAQWGGTSGQPLVTGIVFEEPDIIVGEGVSSKAISQKMPTDSGRNGPRSGKPNKSGSISSISPVPYGNAPLASPPPQQYVQPMMQQPYGYAPNQPLPSQGPAAAAPPVPQQQFDPTAQLNSLMNMLNQQQQQQQQS
4 | no binding | Rif2 (protein, UniProt Q06208 1-395) MEHVDSDFAPIRRSKKVVDSDKIVKAISDDLEQKNFTVLRKLNLVPIKKSVSSPKVCKPSPVKERVDHVFYQKFKSMALQELGTNYLSISYVPSLSKFLSKNLRSMKNCIVFFDKVEHIHQYAGIDRAVSETLSLVDINVVIIEMNDYLMKEGIQSSKSKECIESMGQASYSGQLDFEASEKPSNHTSDLMMMVMRKINNDESIDHIVYFKFEQLDKLSTSTIIEPSKLTEFINVLSVLEKSNNIAFKVLIYSNNVSISSLLSTSLKKKLNTKYTVFEMPILTCAQEQEYLKKMIKFTFDSGSKLLQSYNSLVTCQLNNKESNLAIFFEFLKVFPHPFTYLFNAYTEIIVQSRTFDELLDKIRNRLTIKNYPHSAYNFKKNQRLPLKLTRKVHDR
